# Source: the supplement of paper PMC8728848
# The list shows a part of the results.
# What was measured:
# Assay in all cases: glycan array binding signal (z-score within array); higher = stronger binding
# Conditions in all cases: glycan notation: IUPAC condensed, linker removed
# [1] = target: Fuc(a1-2)Gal
# How it was run: (§1)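 From the Consortium for Functional Glycomics database, 3228 arrays were curated, keeping only those whose protein sequence was available. Binding is given as a within-array Z-score averaged across arrays sharing a protein sequence and across linkers. Negative Z-scores can be read as non-binding.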
# [2] = target: Fuc(a1-2)Gal(b1-3)GalNAc
# How it was run: as §1
# [3] = target: Fuc(a1-2)Gal(b1-3)GalNAc(a1-3)[Fuc(a1-2)]Gal(b1-4)Glc
# How it was run: as §1
# [4] = target: Fuc(a1-2)Gal(b1-3)GalNAc(a1-3)[Fuc(a1-2)]Gal(b1-4)GlcNAc
# How it was run: as §1
# [5] = target: Fuc(a1-2)Gal(b1-3)GalNAc(b1-3)Gal
# How it was run: as §1
# [6] = target: Fuc(a1-2)Gal(b1-3)GalNAc(b1-3)Gal(a1-4)Gal(b1-4)Glc
# How it was run: as §1
# [7] = target: Fuc(a1-2)Gal(b1-3)GalNAc(b1-4)[Neu5Ac(a2-3)]Gal(b1-4)Glc
# How it was run: as §1
# [8] = target: Fuc(a1-2)Gal(b1-3)GlcNAc
# How it was run: as §1
# [9] = target: Fuc(a1-2)Gal(b1-3)GlcNAc(b1-2)Man(a1-3)[Fuc(a1-2)Gal(b1-3)GlcNAc(b1-2)Man(a1-6)]Man(b1-4)GlcNAc(b1-4)GlcNAc
# How it was run: as §1
# [10] = target: Fuc(a1-2)Gal(b1-3)GlcNAc(b1-2)Man(a1-3)[Fuc(a1-2)Gal(b1-3)GlcNAc(b1-2)Man(a1-6)]Man(b1-4)GlcNAc(b1-4)[Fuc(a1-6)]GlcNAc
# How it was run: as §1
# [11] = target: Fuc(a1-2)Gal(b1-3)GlcNAc(b1-3)Gal(b1-4)Glc
# How it was run: as §1
# [12] = target: Fuc(a1-2)Gal(b1-3)GlcNAc(b1-3)GalNAc
# How it was run: as §1
# [13] = target: Fuc(a1-2)Gal(b1-3)GlcNAc(b1-3)[Fuc(a1-2)Gal(b1-3)GlcNAc(b1-6)]GalNAc
# How it was run: as §1
# [14] = target: Fuc(a1-2)Gal(b1-3)GlcNAc(b1-3)[Gal(b1-4)GlcNAc(b1-6)]Gal(b1-4)Glc
# How it was run: as §1
# [15] = target: Fuc(a1-2)Gal(b1-3)GlcNAc(b1-3)[Neu5Ac(a2-6)Gal(b1-4)GlcNAc(b1-6)]Gal(b1-4)Glc
# How it was run: as §1
# [16] = target: Fuc(a1-2)Gal(b1-3)GlcNAc6S
# How it was run: as §1
# [17] = target: Fuc(a1-2)Gal(b1-3)[Fuc(a1-4)]GlcNAc
# How it was run: as §1
# [18] = target: Fuc(a1-2)Gal(b1-3)[Fuc(a1-4)]GlcNAc(b1-2)Man(a1-3)[Fuc(a1-2)Gal(b1-3)[Fuc(a1-4)]GlcNAc(b1-2)Man(a1-3)]Man(b1-4)GlcNAc(b1-4)GlcNAc
# How it was run: as §1
# [19] = target: Fuc(a1-2)Gal(b1-3)[Fuc(a1-4)]GlcNAc(b1-2)Man(a1-3)[Fuc(a1-2)Gal(b1-3)[Fuc(a1-4)]GlcNAc(b1-2)Man(a1-6)]Man(b1-4)GlcNAc(b1-4)[Fuc(a1-6)]GlcNAc(b1-4)[Fuc(a1-6)]GlcNAc
# How it was run: as §1
# [20] = target: Fuc(a1-2)Gal(b1-3)[Fuc(a1-4)]GlcNAc(b1-3)[Fuc(a1-3)[Gal(b1-4)]GlcNAc(b1-6)]Gal(b1-4)Glc
# How it was run: as §1
# [21] = target: Fuc(a1-2)Gal(b1-3)[Fuc(a1-4)]GlcNAc(b1-3)[Gal(b1-4)GlcNAc(b1-6)]Gal(b1-4)Glc
# How it was run: as §1
# [22] = target: Fuc(a1-2)Gal(b1-4)Glc
# How it was run: as §1
# [23] = target: Fuc(a1-2)Gal(b1-4)Glc6S
# How it was run: as §1
# [24] = target: Fuc(a1-2)Gal(b1-4)GlcNAc
# How it was run: as §1
# [25] = target: Fuc(a1-2)Gal(b1-4)GlcNAc(b1-2)Man
# How it was run: as §1
# [26] = target: Fuc(a1-2)Gal(b1-4)GlcNAc(b1-2)Man(a1-3)[Fuc(a1-2)Gal(b1-4)GlcNAc(b1-2)Man(a1-6)]Man(b1-4)GlcNAc(b1-4)GlcNAc
# How it was run: as §1
# [27] = target: Fuc(a1-2)Gal(b1-4)GlcNAc(b1-2)Man(a1-3)[Fuc(a1-2)Gal(b1-4)GlcNAc(b1-2)Man(a1-6)]Man(b1-4)GlcNAc(b1-4)[Fuc(a1-6)]GlcNAc
# How it was run: as §1
# [28] = target: Fuc(a1-2)Gal(b1-4)GlcNAc(b1-2)[Fuc(a1-2)Gal(b1-4)GlcNAc(b1-4)]Man(a1-3)[Fuc(a1-2)Gal(b1-4)GlcNAc(b1-2)Man(a1-6)]Man(b1-4)GlcNAc(b1-4)GlcNAc
# How it was run: as §1
# [29] = target: Fuc(a1-2)Gal(b1-4)GlcNAc(b1-3)Gal(b1-4)GlcNAc
# How it was run: as §1
# [30] = target: Fuc(a1-2)Gal(b1-4)GlcNAc(b1-3)Gal(b1-4)GlcNAc(b1-2)Man(a1-3)[Fuc(a1-2)Gal(b1-4)GlcNAc(b1-3)Gal(b1-4)GlcNAc(b1-2)Man(a1-6)]Man(b1-4)GlcNAc(b1-4)GlcNAc
# How it was run: as §1
# [31] = target: Fuc(a1-2)Gal(b1-4)GlcNAc(b1-3)Gal(b1-4)GlcNAc(b1-3)Gal(b1-4)GlcNAc
# How it was run: as §1
# [32] = target: Fuc(a1-2)Gal(b1-4)GlcNAc(b1-3)GalNAc
# How it was run: as §1
# [33] = target: Fuc(a1-2)Gal(b1-4)GlcNAc(b1-3)[Fuc(a1-2)Gal(b1-4)GlcNAc(b1-6)]GalNAc
# How it was run: as §1
# [34] = target: Fuc(a1-2)Gal(b1-4)GlcNAc(b1-3)[Fuc(a1-3)[Gal(b1-4)]GlcNAc(b1-6)]Gal(b1-4)Glc
# How it was run: as §1
# [35] = target: Fuc(a1-2)Gal(b1-4)GlcNAc(b1-6)GalNAc
# How it was run: as §1
# [36] = target: Fuc(a1-2)Gal(b1-4)GlcNAc6S
# How it was run: as §1
# [37] = target: Fuc(a1-2)Gal(b1-4)[Fuc(a1-3)]GlcNAc
# How it was run: as §1
# [38] = target: Fuc(a1-2)Gal(b1-4)[Fuc(a1-3)]GlcNAc(b1-2)Man(a1-3)[Fuc(a1-2)Gal(b1-4)[Fuc(a1-3)]GlcNAc(b1-2)Man(a1-6)]Man(b1-4)GlcNAc(b1-4)[Fuc(a1-6)]GlcNAc
# How it was run: as §1
# [39] = target: Fuc(a1-2)Gal(b1-4)[Fuc(a1-3)]GlcNAc(b1-2)[Fuc(a1-2)Gal(b1-4)[Fuc(a1-3)]GlcNAc(b1-4)]Man(a1-3)[Fuc(a1-2)Gal(b1-4)[Fuc(a1-3)]GlcNAc(b1-2)Man(a1-6)]Man(b1-4)GlcNAc(b1-4)GlcNAc
# How it was run: as §1
# [40] = target: Fuc(a1-2)Gal(b1-4)[Fuc(a1-3)]GlcNAc(b1-3)Gal(b1-4)[Fuc(a1-3)]GlcNAc
# How it was run: as §1
# [41] = target: Fuc(a1-2)Gal(b1-4)[Fuc(a1-3)]GlcNAc(b1-3)Gal(b1-4)[Fuc(a1-3)]GlcNAc(b1-3)Gal(b1-4)[Fuc(a1-3)]GlcNAc
# How it was run: as §1
# [42] = target: Fuc(a1-2)Gal(b1-4)[Fuc(a1-3)]GlcNAc(b1-3)GalNAc
# How it was run: as §1
# [43] = target: Fuc(a1-2)Gal(b1-4)[Fuc(a1-3)]GlcNAc(b1-3)[Neu5Ac(a2-6)Gal(b1-4)GlcNAc(b1-6)]Gal(b1-4)Glc
# How it was run: as §1
# [44] = target: Fuc(a1-2)Gal3S(b1-4)GlcNAc
# How it was run: as §1
# [45] = target: Fuc(a1-2)Gal6S(b1-3)GlcNAc
# How it was run: as §1
binder,measurement,setting,value
LngA (Escherichia coli) (protein) MLSVYNRTQKFKAEARKKIAKYHELRKQRGMSLLEVIIVLGIIGTIAAGVVILAQRAFDSRAVTDLVTNTNTVRVRMKDAYQRDGKYPDFVDPLSLTANTIKTDTSGIPAAQLVQLGKITPDEVRNNISGDFIAIGGALTSNGAQVKKGFAIELNGLSQEQCRSILGQVGNNWEYVAIGTSASGSYAMTATGVDMSVAASTTVLRSLGNNGQTTLTADKILSTCTAQVNSITLGSR,glycan array binding signal (z-score),[1],-0.265
same,glycan array binding signal (z-score),[2],-0.471
same,glycan array binding signal (z-score),[3],-0.299
same,glycan array binding signal (z-score),[4],0.087
same,glycan array binding signal (z-score),[5],1.06
same,glycan array binding signal (z-score),[6],-0.303
same,glycan array binding signal (z-score),[7],-0.424
same,glycan array binding signal (z-score),[8],0.542
same,glycan array binding signal (z-score),[9],1.12
same,glycan array binding signal (z-score),[10],-0.231
same,glycan array binding signal (z-score),[11],-0.405
same,glycan array binding signal (z-score),[12],-0.307
same,glycan array binding signal (z-score),[13],0.331
same,glycan array binding signal (z-score),[14],-0.442
same,glycan array binding signal (z-score),[15],-0.479
same,glycan array binding signal (z-score),[16],-0.063
same,glycan array binding signal (z-score),[17],-0.534
same,glycan array binding signal (z-score),[18],1.11
same,glycan array binding signal (z-score),[19],-0.302
same,glycan array binding signal (z-score),[20],-0.544
same,glycan array binding signal (z-score),[21],-0.552
same,glycan array binding signal (z-score),[22],-0.027
same,glycan array binding signal (z-score),[23],-0.327
same,glycan array binding signal (z-score),[24],-0.177
same,glycan array binding signal (z-score),[25],0.35
same,glycan array binding signal (z-score),[26],0.242
same,glycan array binding signal (z-score),[27],1.39
same,glycan array binding signal (z-score),[28],0.383
same,glycan array binding signal (z-score),[29],-0.462
same,glycan array binding signal (z-score),[30],-0.248
same,glycan array binding signal (z-score),[31],-0.415
same,glycan array binding signal (z-score),[32],-0.376
same,glycan array binding signal (z-score),[33],-0.186
same,glycan array binding signal (z-score),[34],-0.563
same,glycan array binding signal (z-score),[35],0.251
same,glycan array binding signal (z-score),[36],-0.298
same,glycan array binding signal (z-score),[37],-0.106
same,glycan array binding signal (z-score),[38],-0.231
same,glycan array binding signal (z-score),[39],0.84
same,glycan array binding signal (z-score),[40],-0.488
same,glycan array binding signal (z-score),[41],-0.414
same,glycan array binding signal (z-score),[42],0.215
same,glycan array binding signal (z-score),[43],-0.382
same,glycan array binding signal (z-score),[44],-0.444
same,glycan array binding signal (z-score),[45],-0.411
